Reference: PubChem BioAssay AID445 (National Center for Advancing Translational Sciences (NCATS), 2006)
Among all 110,000 compounds or so, about 40 (0.04%) were called active. Inconclusive results, whose numbers are uncertain, are shown with a selection of clear calls. The call rests on the fitted dose curve; in most records, active means well fitted curve in the direction sought with a large enough effect in the signal ratio (not every such curve was filed as active); inconclusive means small, poorly fitted or top-dose-only effect, or a change in a side signal; inactive means flat fitted curve, though single readings scatter; the % refers to the signal ratio. Where the call is inconclusive, the potency comes from a doubtful curve fit.

Assay: IkB Signaling;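 on IkBa stabilization activation: 0% = basal untreated cells and 100% = reference inhibitor full response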
Conditions: ABC-DLBCL IkBa-CBG/CBR dual luciferase ratio (green luciferase fused to IkBa over red control in OCI-Ly3 lymphoma cells), 4 h; IkBa stabilization activation: at 57.1 µM (top of the series), scaled: untreated 0%, proteasome inhibitor 100% unless noted
How it was run: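 Luminescence ratio of IκBα-fused green versus native red beetle luciferase in OCI-Ly3 cells, 4 h post-doxycycline with compound; red signal alone, scaled from basal (0%) to zero light (-100%), flagged nonspecific or cytotoxic effects.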
Potency means the concentration at half of the fitted maximal effect.

Compound | IkBa stabilization activation | Potency
CCOc1cc(C)c(Cl)cc1S(=O)(=O)NCc1ccc2c(c1)OCO2 | inconclusive: 4.09% [signal inhibitor] | –
O=C(c1ccccc1C(=O)N1CCN(c2ccccc2F)CC1)N1CCN(c2ccccc2F)CC1 | inconclusive: 0.354% [signal inhibitor] | –
COc1ccc(CNC(=O)c2cnn(-c3ccc(OC)cc3)c2C2CCN(C(=O)OC(C)(C)C)CC2)cc1 | inconclusive: -1.67% [signal inhibitor] | –
Cc1c2cnn(-c3ccccc3)c(=O)c2c(C)n1CC(=O)N1CCN(c2cccc(Cl)c2)CC1 | inconclusive: 3.08% [signal inhibitor] | –
Cc1ccc2c(CN3CCN(Cc4ccc5c(c4)OCO5)CC3)cc(=O)oc2c1C | inactive: -0.254% | –
Cc1cc(C)c(S(=O)(=O)Nc2ccc(-c3ccc(N4CCCCC4)nn3)cc2)c(C)c1 | inconclusive: -1.04% [signal inhibitor] | –
COCCCNC(=O)CN1C(=O)COc2ccc(S(=O)(=O)N3CCOCC3)cc21 | inconclusive: 1.09% [signal inhibitor] | –
COc1cc(C2C(C#N)=C(C)NC3=C2C(=O)c2ccccc23)cc(OC)c1OC (centres undefined) | inconclusive: 2.98% [signal activator] | –
COC(=O)CSCc1nc(-c2ccc(C(=O)OC)cc2)oc1C | inconclusive: 11.1% [signal inhibitor] | –
O=C(CCNS(=O)(=O)c1cccc2nonc12)Nc1ccc(F)cc1 | inconclusive: 4.66% [signal inhibitor] | –
COC(=O)c1cccc(Nc2c(-c3ccc(O)cc3)nc3nc[nH]n23)c1 | inconclusive: 13.5% [signal activator] | –
CCC(C)Sc1nc2c(cnn2-c2ccc(C)cc2)c(=O)[nH]1 (centres undefined) | inactive: -3.09% | –
COCCn1c(=NC(=O)CSC(C)=O)sc2cc(F)ccc21 | inconclusive: 2.38% [signal inhibitor] | –
CCOC(=O)c1cc(-c2ccccc2)n(-c2cccc(C(=O)NC(C)CC)c2)c1C (centres undefined) | inconclusive: -1.34% [signal inhibitor] | –
CCn1c(CN2CCCCC2)nc2cc(NC(=O)COc3cc(C)ccc3C(C)C)ccc21 | inconclusive: -1.34% [signal inhibitor] | –
CC(C)Oc1ccc(CNC(=O)c2ccc3c(c2)N(Cc2ccc(F)cc2)CCS3)cc1 | inconclusive: 0.074% [signal inhibitor] | –
O=C(C1CCCCC1)N(Cc1cccnc1)c1nc2c(F)cccc2s1 | inactive: 1.82% | –
Cc1c(-c2ccc(Cl)cc2)c(=O)oc2c(CN3CCN(C)CC3)c(O)ccc12 | inconclusive: 3.5% [signal inhibitor] | –
O=C(O)CCCCCN=C1CCc2ccccc2N1 | – | inconclusive: 20 µM [signal inhibitor, partial curve]
N#Cc1ccc(OC(=O)c2ccc(N=C(N)N)cc2)cc1 | inactive: 0.735% [at 11.4 µM, scaled: untreated 0%, proteasome inhibitor 100%] | –
COc1cccc2sc(N(Cc3cccnc3)C(=O)C3CCCCC3)nc12 | – | inconclusive: 6.31 µM [signal inhibitor, partial curve]
O=C(O)[C@@H]1[C@@H]2O[C@H]([C@@H](Br)[C@H]2Br)[C@H]1C(=O)O | inactive: 0.925% [at 11.4 µM, scaled: untreated 0%, proteasome inhibitor 100%] | –
O=C(CSc1nnc(-c2cnccn2)n1Cc1ccco1)c1ccc(Cl)c(Cl)c1 | inconclusive: 4.45% [signal inhibitor] | –

Compound | IkBa stabilization activation | Potency
O=S(=O)(c1cccc2cnccc12)N1CCCNCC1 | inconclusive: 0.0518% [signal inhibitor] | –
N[C@@H](C(=O)O)[C@H](O)C(=O)O | inactive: 6.23% | –
CC(C)c1nn2c(=O)cc(COC(=O)c3cccc(NC(=O)c4ccccc4F)c3)nc2s1 | inconclusive: 8.87% [signal inhibitor] | –
O=C(Nc1cccc(Cl)c1)C(Cc1ccccc1)n1cccc1 (centres undefined) | inconclusive: 1.37% [signal inhibitor] | –
CCC1Oc2ccc(C)cc2N(CC(=O)NCc2ccc(F)cc2)C1=O (centres undefined) | inactive: 0.447% | –
CCOC(=O)N1CCN(C(=O)Cn2nc(-c3ccc(Cl)cc3)ccc2=O)CC1 | inconclusive: 6.61% [signal inhibitor] | –
CCOC(=O)C(C)Oc1cccc2c(=O)n(CC(=O)NCc3ccc4c(c3)OCO4)ccc12 (centres undefined) | inactive: -2.53% | –
CCOc1ccc(CCNC(=O)CCCc2nnc3n(CCCOC)c(=O)c4sccc4n23)cc1 | inconclusive: 1.28% [signal inhibitor] | –
CC(=O)C1=C(C)NC(SCC(=O)c2ccccc2)=C(C#N)C1c1ccco1 (centres undefined) | inconclusive: 14.3% [signal inhibitor] | –
COc1cccc(-c2cc(C(=O)N3CCCCCC3)no2)c1 | – | inconclusive: 12.6 µM [signal inhibitor, partial curve]
COC(=O)c1cccc(NC(=O)c2cc3sccc3n2C)c1 | inconclusive: 12.1% [signal inhibitor] | –
Cc1ccccc1-c1nc(CS(=O)CC(=O)NCCCN(C)c2ccccc2)c(C)o1 (centres undefined) | inconclusive: 3.5% [signal inhibitor] | –
Cc1cccc2cc(C#N)c(SCC(=O)N3CCC(C)CC3)nc12 | inactive: -0.11% | –
CCOC(=O)c1ccc(NC(=O)CSc2cc(-c3ccccc3)nc(C)n2)cc1 | inactive: -0.41% | –
COc1ccc(-c2cc(C(F)(F)F)nc(S(C)(=O)=O)n2)cc1OC | inconclusive: -6.12% [signal inhibitor] | –
COc1ccc(N2C(=O)C(CC(=O)Nc3ccc(Cl)cc3)N(Cc3ccc4c(c3)OCO4)C2=O)cc1 (centres undefined) | inconclusive: 2.78% [signal inhibitor] | –
Cc1cccc2sc(N(Cc3cccnc3)C(=O)CCS(=O)(=O)c3ccccc3)nc12 | inconclusive: 5.2% [signal inhibitor] | –
O=C(c1ccco1)N1CCN(S(=O)(=O)c2ccc(Br)s2)CC1 | inconclusive: 17.6% | –
CCN(CC)c1ccc(C(=O)Nc2cccc(F)c2)cc1 | inactive: -0.546% | –
Cc1cccc(-c2nc(SCc3cc(=O)c4cccc(F)c4[nH]3)n[nH]2)c1 | inconclusive: 0.233% [signal inhibitor] | –
Cc1ccc(C)c(N2CCN(C(=O)CN3CCSc4ccccc43)CC2)c1 | inconclusive: 8.1% [signal inhibitor] | –
CCOc1ccc(CCNC(=O)CSc2nnnn2-c2ccccc2Cl)cc1OCC | inconclusive: 0.253% [signal inhibitor] | –
CCOc1ccc(-c2nnn(CC(=O)c3ccc4c(c3)OCCO4)n2)cc1OCC | inconclusive: 5.93% [signal inhibitor] | –

Compound | IkBa stabilization activation | Potency
COc1c(C)cc(Br)cc1C(=O)Nc1cccc(NC(=O)c2ccco2)c1 | inconclusive: 0.673% [signal inhibitor] | –
Fc1ccc(F)c(Nc2c3c(nc4ccc(Cl)cc24)CCC3)c1 | inconclusive: -3.16% [signal inhibitor] | –
CCN(CC)CCCNC(=O)c1c2c(nc3ccccc13)C(=O)N(C1CCCCC1)C2 | inactive: -1.36% | –
CCCN(C#N)c1nc(NCC)nc(NC(C)C)n1 | inconclusive: 0.329% [signal inhibitor] | –
O=[N+]([O-])c1ccc([C@@H](Nc2ccccc2)c2ccc3cccnc3c2O)cc1 | inactive: 9.48% [at 11.4 µM, scaled: untreated 0%, proteasome inhibitor 100%] | –
Cc1cc(C)c(NC(=O)C2CCN(C(=O)N3CC(C)Oc4ccc(Cl)cc43)CC2)c(C)c1 (centres undefined) | inconclusive: 1.46% [signal inhibitor] | –
CCCC(=O)Nc1cccc(-c2nc3cc(C)c(C)cc3o2)c1 | inactive: 1.59% | –
Cc1cc(C)cc(NS(=O)(=O)c2ccc(-c3cc(C)no3)s2)c1 | inactive: 2.64% | –
Cc1ccc(-c2nc3cc(Cl)ccc3o2)cc1NC(=O)c1cc2ccccc2o1 | – | inconclusive: 20 µM [signal inhibitor, partial curve]
CC(C)Cc1nn2c(=O)cc(COC(=O)c3cccc(NC(=O)c4cccs4)c3)nc2s1 | inconclusive: 6.76% [signal inhibitor] | –
O=C(Nc1cnccn1)c1cccc(C(F)(F)F)c1 | inactive: 5.03% | –
COCCN(CCOC)S(=O)(=O)c1ccc(C(=O)NCCCN2CCOCC2)cc1 | inactive: 0.85% | –
CC(C)CN(C#N)c1nc(N2CCOCC2)nc(N2CCOCC2)n1 | inactive: -1.55% | –
CC[C@@H](CO)Nc1nc(NCc2ccccc2)c2ncn(C(C)C)c2n1 | – | inconclusive: 31.6 µM [signal inhibitor, partial curve]
Cc1ccccc1Cn1c(=O)n(CC2CCC(C(=O)N3CCC(C)CC3)CC2)c(=O)c2sccc21 (centres undefined) | inconclusive: 1.66% [signal inhibitor] | –
Cc1ccccc1-c1cncnc1Nc1ccccc1 | inactive: 2.66% [at 11.4 µM, scaled: untreated 0%, proteasome inhibitor 100%] | –
CCOC(=O)c1c(C)[nH]c(C)c1S(=O)(=O)N(C)CC(=O)Nc1cccc(Cl)c1C | inactive: -1.36% | –
C1COC1 | inactive: -0.647% | –
Cc1ccc(NCc2cccn2-c2nnc(N3CCC(C(=O)NCc4ccccc4C)CC3)s2)cc1 | inconclusive: -0.658% [signal inhibitor] | –
COc1ccc(CN2CCCN(CC(=O)Nc3ccc(Br)cc3F)S2(=O)=O)cc1 | inconclusive: 2.15% [signal inhibitor] | –
Cc1ccc(-n2ncc(C(=O)NCc3ccc4c(c3)OCO4)c2C2CCN(C(=O)OC(C)(C)C)CC2)cc1C | inconclusive: -2.86% [signal inhibitor] | –
Cc1nn(-c2ccccc2)c2sc(C(=O)OCn3nnc4ccccc4c3=O)cc12 | inactive: -0.508% | –
CCOc1ccc(NC(=O)CC2Nc3cccc4cccc(c34)NC2=O)cc1 (centres undefined) | – | inconclusive: 31.6 µM [signal inhibitor, single point]
